# The supplement of paper PMC8728848
# The list shows a part of the results.
# B1: Als1 (Candida albicans), P46590 (protein)
# chain: KTITGVFDSFNSLTWSNAANYAFKGPGYPTWNAVLGWSLDGTSANPGDTFTLNMPCVFKYTTSQTSVDLTADGVKYATCQFYSGEEFTTFSTLTCTVNDALKSSIKAFGTVTLPIAFNVGGTGSSTDLEDSKCFTAGTNTVTFNDGDKDISIDVEFEKSTVDPSGYLYASRVMPSLNKVTTLFVAPQCENGYTSGTMGFSSSNGDVAIDCSNIHIGITKGLNDWNYPVSSESFSYTKTCTSNGIQIKYQNVPAGYRPFIDAYISATDVNQYTLAYTNDYTCAGSRLQSKPFTLRWTGYKNSDAGSNGIVIVATTRTVTDSTTAVTTLPFNPSVDKTKTIEILQPIPTTTITTSYVGVTTSYLTKTAPIGETATVIVDVPYHTTTTVTSEWTGTITTTTTRTNPTDSIDTVVVQVP
# How the values were obtained:
# Test in all cases: glycan array binding signal (z-score within array); higher = stronger binding
# Details in all cases: glycan notation: IUPAC condensed, linker removed
# [1] = biological target: Neu5Ac(a2-6)Gal(b1-4)GlcNAc(b1-2)Man(a1-3)[Man(a1-6)]Man(b1-4)GlcNAc(b1-4)GlcNAc
# Summary of the method: (§1)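 Negative Z-scores can be read as non-binding. The Z-score is calculated within each array and then averaged across arrays of one protein sequence at different concentrations or buffers and across linkers. Arrays, 3228 in all, were curated from the Consortium for Functional Glycomics database and kept only where the protein sequence was available.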
# [2] = biological target: Neu5Ac(a2-6)Gal(b1-4)GlcNAc(b1-2)Man(a1-3)[Neu5Ac(a2-3)Gal(b1-4)GlcNAc(b1-2)Man(a1-6)]Man(b1-4)GlcNAc(b1-4)GlcNAc
# Summary of the method: as §1
# [3] = biological target: Neu5Ac(a2-6)Gal(b1-4)GlcNAc(b1-2)Man(a1-3)[Neu5Ac(a2-6)Gal(b1-4)GlcNAc(b1-2)Man(a1-6)]Man(b1-4)GlcNAc(b1-4)GlcNAc
# Summary of the method: as §1
# [4] = biological target: Neu5Ac(a2-6)Gal(b1-4)GlcNAc(b1-2)Man(a1-3)[Neu5Ac(a2-6)Gal(b1-4)GlcNAc(b1-2)Man(a1-6)]Man(b1-4)GlcNAc(b1-4)[Fuc(a1-6)]GlcNAc
# Summary of the method: as §1
# [5] = biological target: Neu5Ac(a2-6)Gal(b1-4)GlcNAc(b1-2)Man(a1-6)Man(b1-4)GlcNAc(b1-4)GlcNAc
# Summary of the method: as §1
# [6] = biological target: Neu5Ac(a2-6)Gal(b1-4)GlcNAc(b1-2)Man(a1-6)[Gal(b1-4)GlcNAc(b1-2)Man(a1-3)]Man(b1-4)GlcNAc(b1-4)GlcNAc
# Summary of the method: as §1
# [7] = biological target: Neu5Ac(a2-6)Gal(b1-4)GlcNAc(b1-2)Man(a1-6)[GlcNAc(b1-2)Man(a1-3)]Man(b1-4)GlcNAc(b1-4)GlcNAc
# Summary of the method: as §1
# [8] = biological target: Neu5Ac(a2-6)Gal(b1-4)GlcNAc(b1-2)Man(a1-6)[Man(a1-3)]Man(b1-4)GlcNAc(b1-4)GlcNAc
# Summary of the method: as §1
# [9] = biological target: Neu5Ac(a2-6)Gal(b1-4)GlcNAc(b1-2)[Neu5Ac(a2-6)Gal(b1-4)GlcNAc(b1-4)]Man(a1-3)[GlcNAc(b1-4)][Neu5Ac(a2-6)Gal(b1-4)GlcNAc(b1-2)[Neu5Ac(a2-6)Gal(b1-4)GlcNAc(b1-6)]Man(a1-6)]Man(b1-4)GlcNAc(b1-4)GlcNAc
# Summary of the method: as §1
# [10] = biological target: Neu5Ac(a2-6)Gal(b1-4)GlcNAc(b1-2)[Neu5Ac(a2-6)Gal(b1-4)GlcNAc(b1-4)]Man(a1-3)[GlcNAc(b1-4)][Neu5Ac(a2-6)Gal(b1-4)GlcNAc(b1-4)Man(a1-6)]Man(b1-4)GlcNAc(b1-4)GlcNAc
# Summary of the method: as §1
# [11] = biological target: Neu5Ac(a2-6)Gal(b1-4)GlcNAc(b1-2)[Neu5Ac(a2-6)Gal(b1-4)GlcNAc(b1-6)]Man(a1-6)[Neu5Ac(a2-6)Gal(b1-4)GlcNAc(b1-2)Man(a1-3)][GlcNAc(b1-4)]Man(b1-4)GlcNAc(b1-4)GlcNAc
# Summary of the method: as §1
# [12] = biological target: Neu5Ac(a2-6)Gal(b1-4)GlcNAc(b1-3)Gal(b1-3)GlcNAc
# Summary of the method: as §1
# [13] = biological target: Neu5Ac(a2-6)Gal(b1-4)GlcNAc(b1-3)Gal(b1-4)GlcNAc
# Summary of the method: as §1
# [14] = biological target: Neu5Ac(a2-6)Gal(b1-4)GlcNAc(b1-3)Gal(b1-4)GlcNAc(b1-2)Man(a1-3)[Neu5Ac(a2-6)Gal(b1-4)GlcNAc(b1-3)Gal(b1-4)GlcNAc(b1-2)Man(a1-6)]GalNAc
# Summary of the method: as §1
# [15] = biological target: Neu5Ac(a2-6)Gal(b1-4)GlcNAc(b1-3)Gal(b1-4)GlcNAc(b1-3)Gal(b1-4)GlcNAc
# Summary of the method: as §1
# [16] = biological target: Neu5Ac(a2-6)Gal(b1-4)GlcNAc(b1-3)Gal(b1-4)GlcNAc(b1-3)Gal(b1-4)GlcNAc(b1-2)Man(a1-3)[Neu5Ac(a2-6)Gal(b1-4)GlcNAc(b1-3)Gal(b1-4)GlcNAc(b1-3)Gal(b1-4)GlcNAc(b1-2)Man(a1-6)]GalNAc
# Summary of the method: as §1
# [17] = biological target: Neu5Ac(a2-6)Gal(b1-4)GlcNAc(b1-3)Gal(b1-4)GlcNAc(b1-3)GalNAc
# Summary of the method: as §1
# [18] = biological target: Neu5Ac(a2-6)Gal(b1-4)GlcNAc(b1-3)Gal(b1-4)GlcNAc(b1-3)[Neu5Ac(a2-6)Gal(b1-4)GlcNAc(b1-3)Gal(b1-4)GlcNAc(b1-6)]GalNAc
# Summary of the method: as §1
# [19] = biological target: Neu5Ac(a2-6)Gal(b1-4)GlcNAc(b1-3)Gal(b1-4)GlcNAc(b1-6)[Gal(b1-3)]GalNAc
# Summary of the method: as §1
# [20] = biological target: Neu5Ac(a2-6)Gal(b1-4)GlcNAc(b1-3)Gal(b1-4)[Fuc(a1-3)]GlcNAc(b1-3)Gal(b1-4)[Fuc(a1-3)]GlcNAc
# Summary of the method: as §1
# [21] = biological target: Neu5Ac(a2-6)Gal(b1-4)GlcNAc(b1-3)GalNAc
# Summary of the method: as §1
# [22] = biological target: Neu5Ac(a2-6)Gal(b1-4)GlcNAc(b1-3)[Neu5Ac(a2-6)Gal(b1-4)GlcNAc(b1-6)]GalNAc
# Summary of the method: as §1
# [23] = biological target: Neu5Ac(a2-6)Gal(b1-4)GlcNAc(b1-6)GalNAc
# Summary of the method: as §1
# [24] = biological target: Neu5Ac(a2-6)Gal(b1-4)GlcNAc(b1-6)[Gal(b1-3)GlcNAc(b1-3)]Gal(b1-4)Glc
# Summary of the method: as §1
# [25] = biological target: Neu5Ac(a2-6)Gal(b1-4)GlcNAc(b1-6)[Gal(b1-3)]GalNAc
# Summary of the method: as §1
# [26] = biological target: Neu5Ac(a2-6)Gal(b1-4)GlcNAc6S
# Summary of the method: as §1
# Neu5Ac(a2-6)GalNAc = biological target: Neu5Ac(a2-6)GalNAc
# Summary of the method: as §1
# [27] = biological target: Neu5Ac(a2-6)GalNAc(b1-4)GlcNAc
# Summary of the method: as §1
# [28] = biological target: Neu5Ac(a2-6)GalNAc(b1-4)GlcNAc6S
# Summary of the method: as §1
# [29] = biological target: Neu5Ac(a2-6)GlcNAc(b1-4)GlcNAc
# Summary of the method: as §1
# [30] = biological target: Neu5Ac(a2-6)GlcNAc(b1-4)GlcNAc(b1-4)GlcNAc
# Summary of the method: as §1
binder,measurement,setting,value
B1,glycan array binding signal (z-score),[1],0.175
same,glycan array binding signal (z-score),[2],-0.709
same,glycan array binding signal (z-score),[3],-0.372
same,glycan array binding signal (z-score),[4],-0.555
same,glycan array binding signal (z-score),[5],-0.334
same,glycan array binding signal (z-score),[6],-0.194
same,glycan array binding signal (z-score),[7],-0.623
same,glycan array binding signal (z-score),[8],0.367
same,glycan array binding signal (z-score),[9],-0.67
same,glycan array binding signal (z-score),[10],-0.261
same,glycan array binding signal (z-score),[11],-0.081
same,glycan array binding signal (z-score),[12],-0.073
same,glycan array binding signal (z-score),[13],-0.643
same,glycan array binding signal (z-score),[14],1.05
same,glycan array binding signal (z-score),[15],-0.201
same,glycan array binding signal (z-score),[16],2.83
same,glycan array binding signal (z-score),[17],1.73
same,glycan array binding signal (z-score),[18],0.519
same,glycan array binding signal (z-score),[19],-0.05
same,glycan array binding signal (z-score),[20],-0.465
same,glycan array binding signal (z-score),[21],0.836
same,glycan array binding signal (z-score),[22],-0.213
same,glycan array binding signal (z-score),[23],0.871
same,glycan array binding signal (z-score),[24],-0.729
same,glycan array binding signal (z-score),[25],0.161
same,glycan array binding signal (z-score),[26],0.516
same,glycan array binding signal (z-score),Neu5Ac(a2-6)GalNAc,-0.464
same,glycan array binding signal (z-score),[27],1.21
same,glycan array binding signal (z-score),[28],0.305
same,glycan array binding signal (z-score),[29],-0.313
same,glycan array binding signal (z-score),[30],0.779
